# Data from PubChem BioAssay AID662 (National Center for Advancing Translational Sciences (NCATS), 2007).
# In all, about 71,000 compounds went through this assay and about 1,800 (2.5%) were called active. The inconclusive results got no clear call from the source; some entries with a clear call stand among them for comparison. Calls come from the whole dose curve; as a rule, active = well fitted activation curve with a large enough effect in the signal ratio, with a control signal flat (not every such curve was filed as active); inconclusive = small, poorly fitted or top-dose-only effect, or effect the other way, or a change in a side signal; inactive = flat fitted curve, though single readings scatter; the % refers to the signal ratio. Where the call is inconclusive, the potency comes from a doubtful curve fit.
# Experiment: Cell signaling CRE-BLA (Fsk stim); for activity change, negative = inhibition: % of control where 0% means no effect
# Conditions: CHO CRE-bla reporter (cAMP response element driving beta-lactamase), forskolin EC10, beta-lactamase ratio; activity change, negative = inhibition: at 38.2 µM (top of the series) unless noted
# In short: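 Reporter-gene assay: CHO cells with beta-lactamase behind cAMP responsive elements, co-treated with compound and EC10 NKH 477 for 3 hours at 37 degrees Celsius. Activity came from the 460/530 nm CCF4 emission ratio.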
# Potency is the fitted concentration of half-maximal effect; tags give direction and shape of the fitted curve.
SMILES,Potency,"activity change, negative = inhibition"
CCOc1nc(OCC)nc(N2CCC(C)CC2)n1,"inconclusive: 10 µM [rising, single point]",–
Cc1[nH]c2ccc(-c3nnc(SCC(=O)N4CCCc5ccccc54)o3)cc2c1C,–,inconclusive: 5.28%
CCOC(=O)c1nc(N)c(=O)n(-c2ccccc2)n1,–,inconclusive: 15.6%
CSc1ccc(-c2c(C#N)c(N)nc3c2c(C)nn3-c2ccccc2)cc1,active: 10 µM,–
c1ccc2c(c1)CCN(c1ncnc3nc[nH]c13)C2,"inconclusive: 5.01 µM [rising, partial curve]",–
O=S(=O)(c1cccc2c(Cl)cccc12)N1CCCNCC1,–,inconclusive: -45.3%
C=C(C)COc1ccc(-c2n[nH]c(C)c2-c2ccccc2)c(O)c1,–,inconclusive: -4.35%
CCOC(=O)C1=C(C)NC(=O)N(C(C)=O)C1c1ccc(Cl)cc1 (centres undefined),–,inconclusive: -25.5% [at 7.6 µM]
N#CCCN1CCN(C(=S)c2ccc(-c3ccc(Cl)cc3)o2)CC1,–,inconclusive: 22.6%
COc1ccc(CCNC(=O)CN(c2ccccc2OC)S(C)(=O)=O)cc1OC,–,inconclusive: 27.8% [at 7.6 µM]
O=C(Nc1ccc2c(c1)nc1n2CCOC1)C1CCCCC1,"inconclusive: 3.98 µM [rising, single point]",–
O=C(c1cnccn1)N1CCC2(CC1)CN(c1ccncc1)C2,–,inactive
O=C(NCCN1CCOCC1)c1cc(-c2cccs2)on1,"inconclusive: 10 µM [rising, single point]",–
CCSc1cc(C2C(C(=O)OC)=C(C)NC3=C2C(=O)CCC3)c(C)o1 (centres undefined),–,inactive
CCc1ccc(-c2nnn(CCC(=O)OC)n2)cc1,–,inactive
CCN(CC)CCOc1c(Br)ccc2c1sc1nc3n(c(=O)c12)CCC3,"inconclusive: 10 µM [rising, partial curve]",–
COCCn1c(=O)c(C)nc2cnc(Oc3ccc(OC)cc3)nc21,"inconclusive: 10 µM [rising, partial curve]",–
CCOC(=O)CNC(=O)c1nn(-c2ccc(OCC)cc2)c(=O)c2ccccc12,–,inconclusive: 18%
Cc1oc(-c2ccccc2F)nc1CN1CCC(C(=O)NC2CCCCCCC2)CC1,–,inconclusive: 12.6%
COc1cc(CN2CCCCC2)cc2cc(C(=O)O)c(=O)oc12,–,inactive: 0.264% [at 7.6 µM]
CCOC(=O)c1cnc(-n2cc(C)cn2)nc1Nc1ccccc1OCC,"inconclusive: 3.98 µM [rising, single point]",–
O=C(COc1ccc(Cl)cc1)OCC(=O)N1CCCCCC1,–,inconclusive: -8.46%

SMILES,Potency,"activity change, negative = inhibition"
CN(CCc1ccccn1)c1ncnc2[nH]ncc12,–,inconclusive: -8%
Cc1cc(Nc2ccccc2Br)n2nc(C)nc2n1,"inconclusive: 10 µM [rising, partial curve]",–
O=C(NCc1n[nH]c(=S)n1-c1ccccc1)c1ccco1,–,inconclusive: 16.1%
NC(=O)C1CCN(CC(=O)Nc2ccccn2)CC1,–,inactive
CCOc1ccc(CCNC(=O)C2CCN(c3nn4c(=O)cc(C)nc4s3)CC2)cc1,–,inconclusive: -1.88%
Cc1cc(C)c(C#N)c(SCC(=O)N2CCCCC2)n1,–,inactive
CCOC(=O)N1CCC(N2C(=O)c3ccc(C(=O)O)cc3C2=O)CC1,–,inconclusive: -8.85%
COC(=O)CNC(=O)[C@@]1(C)C=C[C@@H](Cc2ccccc2)N1C(=O)OC,–,inactive
Cc1ccc(C(=O)Nc2cnc3sc(C)nn3c2=O)cc1,–,inconclusive: 12.7%
COc1ccc(C(=O)CN2CCN(c3ccc(F)cc3)CC2)cc1OC,–,inconclusive: -4.24%
CN(Cc1nc(-c2cccnc2)no1)S(=O)(=O)c1ccc2ccccc2c1,–,inconclusive: -3.5%
CCOc1ccc(C(=O)Nc2cc(C)on2)cc1OCC,–,inactive
Cc1cc(C(=O)N(C2CCCCC2)C2CCCCC2)no1,–,inconclusive: -12.3%
CCCSc1nc2c(c(=O)[nH]c(=O)n2C)n1Cc1ccc(C)cc1,–,inactive
CCOC(=O)CSc1nnc(N)s1,–,inactive
CCCNC(=O)C1CCN(c2nc(C)cc(C)n2)CC1,–,inactive
COc1cc(C(=O)OCC(=O)NCc2ccco2)cc(OC)c1OC,"inconclusive: 6.31 µM [rising, single point]",–
Cc1nn(Cc2ccccc2)c(N)c1C#N,–,inactive
NC(N)=[N+]1CCc2ccccc2C1,–,inactive
O=C(CN1CCOCC1)Nc1ccc(-c2nc3ccccc3[nH]2)cc1,–,inconclusive: 22.1%
Cc1ccc2[nH]c(=O)c(C(c3nnnn3C(C)(C)C)N(Cc3ccco3)CC3CCCO3)cc2c1 (centres undefined),–,inconclusive: -6.87%
Cc1noc(C)c1-c1cncnc1NCc1cccnc1,–,inactive
